Screen size: about 310,000 compounds; about 2,200 (0.71%) showed an effect of 50% or more. The effect is printed as a negative number. Some of the results follow.
Target: human ether-à-go-go-related gene (hERG) potassium channel (human, UniProt Q12809)
Test: primary screen, population patch clamp on CHO cells stably expressing hERG

human ether-à-go-go-related gene (hERG) potassium channel, sequence (Q12809 whole entry, looked up): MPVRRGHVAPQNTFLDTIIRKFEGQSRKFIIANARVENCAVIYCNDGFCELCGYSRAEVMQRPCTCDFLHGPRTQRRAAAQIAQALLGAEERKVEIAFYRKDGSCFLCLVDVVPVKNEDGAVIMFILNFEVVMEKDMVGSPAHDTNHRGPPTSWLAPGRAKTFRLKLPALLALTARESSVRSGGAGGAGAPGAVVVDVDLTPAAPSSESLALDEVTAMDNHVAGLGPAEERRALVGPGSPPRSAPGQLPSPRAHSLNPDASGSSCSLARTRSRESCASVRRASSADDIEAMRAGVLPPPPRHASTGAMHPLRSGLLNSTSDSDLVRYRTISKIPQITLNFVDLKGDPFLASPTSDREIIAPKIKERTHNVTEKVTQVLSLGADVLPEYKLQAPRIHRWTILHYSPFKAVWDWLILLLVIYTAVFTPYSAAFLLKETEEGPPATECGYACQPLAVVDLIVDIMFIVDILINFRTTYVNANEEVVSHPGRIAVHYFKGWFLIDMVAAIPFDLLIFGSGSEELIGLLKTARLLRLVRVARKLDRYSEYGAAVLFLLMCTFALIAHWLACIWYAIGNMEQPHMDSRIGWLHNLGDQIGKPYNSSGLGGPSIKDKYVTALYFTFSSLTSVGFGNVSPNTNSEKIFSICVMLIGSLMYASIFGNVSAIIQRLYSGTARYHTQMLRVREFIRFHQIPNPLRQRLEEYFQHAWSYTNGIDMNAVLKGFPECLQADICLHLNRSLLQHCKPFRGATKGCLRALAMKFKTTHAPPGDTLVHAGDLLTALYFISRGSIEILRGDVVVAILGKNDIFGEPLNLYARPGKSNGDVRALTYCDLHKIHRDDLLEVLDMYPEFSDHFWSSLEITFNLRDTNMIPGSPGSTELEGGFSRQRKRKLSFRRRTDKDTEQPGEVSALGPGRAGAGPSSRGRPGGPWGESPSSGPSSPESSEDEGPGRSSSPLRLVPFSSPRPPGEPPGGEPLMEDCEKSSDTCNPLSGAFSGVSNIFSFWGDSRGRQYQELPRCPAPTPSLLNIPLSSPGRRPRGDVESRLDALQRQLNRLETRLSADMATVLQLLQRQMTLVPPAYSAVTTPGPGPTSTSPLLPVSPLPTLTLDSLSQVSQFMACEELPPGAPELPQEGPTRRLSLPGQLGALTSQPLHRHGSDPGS

SMILES	hERG current change (%, negative = inhibition) at 1uM
O=C(CN1CCN(C(=O)N2CCOCC2)CC1)Nc1cc(Cl)ccc1Cl	-24.8%
Cc1noc(/C=C/N(C)C)c1S(=O)(=O)N1CCCC(C(=O)N2CCc3ccccc32)C1 (stereo not drawn)	11.6%
COCc1cc(/C=N\NC(=O)Cc2ccc(Cl)cc2)ccc1OC	-5.99%
COc1ccc(C(CCNCc2ccc(N(C)C)cc2)c2ccccc2)cc1 (stereo not drawn)	-56.4%
O=S(=O)(c1ccc(SCCOc2ccc(Br)cc2)nc1)N1CCCC1	9.03%
O=C(OCC(=O)c1ccc[nH]1)c1ccc(S(=O)(=O)N2CCCCCC2)cc1	6.74%
Cc1cc2n(n1)C(c1sccc1C)Nc1c(C)cccc1-2 (stereo not drawn)	1.95%
Cc1ccc(O)c(C=Nc2ccc3[nH]ncc3c2)c1	1.13%
CC(=N/O)/C(=N\O)c1ccc(C)o1	8.08%
Cc1cc(C(=O)N2CCN(c3ccccc3)CC2)no1	-1.56%
CCOC(=O)N1CCN(C(=O)CCn2c(=S)[nH]c3ccccc3c2=O)CC1	18.6%
CCCc1nc(-c2ccccc2O)n(-c2ccccc2)n1	12.2%
CCOC(=O)C1CCN(CC(=O)NC(=O)NC2CCCCC2)CC1	6.76%
O=C(NCCN1CCN(Cc2ccccc2)CC1)c1ccc(CS(=O)(=O)c2ccc(Br)cc2)o1	-50.5%
O=C(C1CCC(=O)N1Cc1ccccc1Cl)N1CCN(c2cccc(Cl)c2)CC1 (stereo not drawn)	9.42%
Cc1cc(C)n(-c2nc(-c3ccccc3)cs2)n1	1.91%
C/C(=N/NC(=O)c1cccs1)c1ccc(NC(=O)COc2ccc(Cl)cc2)cc1	17.7%
Cc1cc2oc(=O)cc(Cn3ncc(Cl)c(Cl)c3=O)c2cc1Cl	6.36%
CN(C)S(=O)(=O)c1cc(NC(=O)CN2CCCc3ccccc32)ccc1Cl	9.05%

SMILES	hERG current change (%, negative = inhibition) at 1uM
CN(C)S(=O)(=O)c1ccc(N2CCCC2)c(C(=O)Nc2ccccc2F)c1	9.56%
COc1ccc(S(=O)(=O)N2CCCCC2)cc1-n1cnnn1	14.3%
NC(=O)C1CCN(C(=O)c2cnn(-c3ccccc3)c2NC(=O)c2cccc(F)c2)CC1	8.66%
CCCCOc1ccc(S(N)(=O)=O)cc1	4.44%
CCOc1ccccc1NC(=O)Nc1cccc(NC(C)=O)c1	9.48%
CCS(=O)(=O)c1ccc2oc(Nc3ccccc3Br)nc2c1	-3.68%
Cc1[nH]n(-c2ccccc2)c(=O)c1C=Nc1cnc2ccccc2c1	8.17%
O=C(c1ccccc1F)N1CCc2ccccc21	8.75%
Cc1ccc(CNC(=O)CCCn2c(=O)c3ccccc3n(CC(=O)NCc3ccco3)c2=O)cc1	2.36%
COc1cccc(COCC(O)Cn2cnc3cc(C)c(C)cc32)c1.O=C(O)C(=O)O (stereo not drawn)	11.9%
COc1ccc(OC)c(S(=O)(=O)NCC(=O)O)c1	13.4%
COc1ccc2c(c1)Cc1sc(NC(=O)c3ccco3)nc1-2	11.6%
Cc1cccc(-c2noc(CCCC(=O)Nc3ccc(C(N)=O)cc3)n2)c1	10.6%
Cc1c(Br)c([N+](=O)[O-])nn1CC(=O)Nc1ccc(C(C)C)cc1	14.6%
c1ccc(CSc2ncnc3ccccc23)cc1	7.32%
C=CCNC(=O)/C(=C\C=C\c1ccccc1)NC(=O)c1ccccc1Cl	-1.9%
COc1ccc(OCC(=O)O/N=C(\N)c2ccc(OC)c(OC)c2)cc1	11.7%
CC1(C(=O)O)COC(c2ccc([N+](=O)[O-])cc2)OC1 (stereo not drawn)	2.26%
CCOC(=O)c1[nH]c(C)c(C(=O)NCCCN2CCOCC2)c1C	-6.95%

SMILES	hERG current change (%, negative = inhibition) at 1uM
O=C(NCCn1c(-c2ccncc2)nc2ccccc21)[C@H]1CCCN1c1nc(CN2CCCCC2)cs1	12.3%
CC(=O)N1CCc2cc(S(=O)(=O)NCCC(=O)Nc3ccc4c(c3)OCCO4)ccc21	10.4%
Cc1ccc(S(=O)(=O)NCCc2cn3nc(C)c(C)nc3n2)cc1C	27.3%
O=C(NN1CCOCC1)c1cccc(Br)c1	18.8%
COc1ccc(-c2csc3ncnc(N4CCN(S(=O)(=O)c5ccc(C)c(C)c5)CC4)c23)cc1	18.8%
CCOc1ccc(NC(=O)CN2CCCC2c2cccs2)cc1S(=O)(=O)N1CCCC1 (stereo not drawn)	1.57%
O=c1c2[nH]c3ccc(F)cc3c2ncn1CCCN1CCOCC1	2.42%
OCCN(Cc1ccccc1)Cc1ccc(Cl)cc1	-5.13%
Cc1cc(C(=O)NC2CCCN(Cc3ccc(Cl)cc3)C2)c(C)o1 (stereo not drawn)	2.95%
C/C(=N\NC(=O)c1ccc(C)cc1C)c1ccc2c(c1)Nc1ccccc1S2	15.7%
O=C(Nc1ccccc1C(F)(F)F)c1cc2ncc(CCCl)cn2n1	-3.99%
CCOC(=O)C1CCN(C(=O)c2c(C)oc3c2C(=O)c2ccccc2C3=O)CC1	2.38%
O=C(c1cccc(C(F)(F)F)c1)C1CCCN(C(=O)Cn2cncn2)C1 (stereo not drawn)	11.6%
CCOc1ccc(Br)cc1/C(C)=N\NC1=NCCN1.Cl	-15.5%
O=C(Nc1cccc(S(=O)(=O)N2CCCC2)c1)c1cc(-c2ccccn2)nc2ccccc12	5.82%
O=C(COC(=O)c1cccc(C(F)(F)F)c1)NCc1ccc(Cl)cc1	7.56%
Nc1c(Cl)cc(Cl)cc1C(=O)OCC(=O)N1CCOCC1	-0.979%
CC(=O)N1CCOc2ccc(S(=O)(=O)NC(C)c3ccccc3)cc21 (stereo not drawn)	6.21%
CN1C(=O)C(CC(N)=O)N(NC(=O)c2ccc(Cl)cc2)C1=S (stereo not drawn)	18.3%
